# From article PMC6212790
# Some of the results follow. At the low end of the ranking the order means little.
# Biological target: T1, GST-Rok-C97-191 (UniProt O34857)
# T1 sequence: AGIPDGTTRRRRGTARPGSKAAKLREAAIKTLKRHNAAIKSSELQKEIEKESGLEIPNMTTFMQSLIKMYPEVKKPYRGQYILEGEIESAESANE
# Assay: protein binding microarray;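 further: rank score from −0.5 (least bound) to 0.5 (best bound)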
# Details: Rok is a gene silencer of Bacillus subtilis; high values mean tight binding; most listed sequences are background and not binding sites; double strand, one strand shown
row,Sequence,binding signal
1,GGGTTCCA,-0.26 E-score
2,GAGCGTGA,-0.137 E-score
3,AGGTGTGC,-0.113 E-score
4,AATCAATT,0.0514 E-score
5,CATCCTTC,-0.179 E-score
6,CAGCATGA,-0.0331 E-score
7,CCTTCTCC,-0.165 E-score
8,GTCAAGCA,-0.0462 E-score
9,AACCTTTG,-0.142 E-score
10,CATGTTGG,-0.144 E-score
11,CTTCCGGC,-0.307 E-score
12,CACAGTGC,0.0225 E-score
13,CGATGGCG,-0.305 E-score
14,GCCGATTA,-0.0695 E-score
15,GCCCTCAC,-0.26 E-score
16,CCCGCCTA,-0.243 E-score
17,ACTCTTTA,0.0447 E-score
18,GCGGAAAA,0.177 E-score
19,CAATTCTG,0.00181 E-score
20,ACGCGTTC,0.033 E-score
21,CGATATGC,0.00452 E-score
22,GCGCCTGA,-0.293 E-score

row,Sequence,binding signal
1,CACAAAGG,-0.22 E-score
2,TGCTCGAA,-0.127 E-score
3,AGCCCTCA,-0.158 E-score
4,GCATTGTA,0.112 E-score
5,CCGCCTTA,-0.0331 E-score
6,AGCGCAAT,0.0885 E-score
7,ACTCTCAG,-0.135 E-score
8,ATCTTTCG,0.116 E-score
9,GGTACGAA,-0.0178 E-score
10,AACGCCTC,-0.191 E-score
11,ACAAAGGT,-0.115 E-score
12,ACGGCGAT,-0.0579 E-score
13,CGTTCTTA,0.0387 E-score
14,CCGTGCTC,-0.205 E-score
15,CGCGGCAC,-0.203 E-score
16,ACTTGTTC,0.195 E-score
17,ACGGGGCG,-0.381 E-score
18,CCAGGCTC,-0.165 E-score
19,CCACTGTC,-0.118 E-score
20,AGGCAAAA,-0.0274 E-score
21,CAGGCGAG,-0.13 E-score
22,ACCCTGCT,-0.181 E-score

row,Sequence,binding signal
1,ACGGCAGT,-0.16 E-score
2,GACAAGTA,0.226 E-score
3,ACCACCAG,-0.0609 E-score
4,GCAAATCA,0.00425 E-score
5,CAATAATG,-0.00138 E-score
6,ATTGTGAG,0.116 E-score
7,GATCGGGC,-0.0269 E-score
8,ACTCGGAG,-0.0612 E-score
9,ATTAAGCG,0.231 E-score
10,CGAAGGAG,-0.0169 E-score
11,AAGTAACG,0.0158 E-score
12,CCGGGCCG,-0.376 E-score
13,ATATCTAA,0.351 E-score
14,TCATATAA,0.126 E-score
15,CGAATTCG,0.0271 E-score
16,TCTCTCAA,0.0872 E-score
17,AGCGAATC,0.0103 E-score
18,AGGTTCGG,-0.0647 E-score
19,ATCCCTGG,-0.0674 E-score
20,CTGCACTA,0.00252 E-score
21,GACGTCAA,0.0337 E-score
22,ACGCGAAC,-0.0799 E-score

row,Sequence,binding signal
1,TGTGGTAA,0.205 E-score
2,ACTAACTG,0.16 E-score
3,TGCGGCAA,0.0751 E-score
4,ACGCCCTA,-0.261 E-score
5,CATCGCGA,0.085 E-score
6,AGAACCAC,0.141 E-score
7,AAACTGAA,0.0272 E-score
8,GCAATCCA,-0.15 E-score
9,CGCTGATA,-0.0608 E-score
10,ATCTCGCA,0.137 E-score
11,AGGTTCAA,-0.0693 E-score
12,CTTAGCTC,-0.0409 E-score
13,CGATGCAC,-0.156 E-score
14,CATAGGGA,-0.19 E-score
15,CAGTCATG,-0.195 E-score
16,AATATCTA,0.343 E-score
17,CTATGGCA,0.0479 E-score
18,GACCTACC,-0.115 E-score
19,AGTATATA,0.428 E-score
20,AAAGAAGA,-0.141 E-score
